Experiment: LD10 dose of melphalan
Conditions: mice, intraperitoneal, previously established

With N[C@@H](Cc1ccc(N(CCCl)CCCl)cc1)C(=O)O [Melphalan, 4-[bis(2-chloroethyl)amino]-L-phenylalanine] the “LD10 dose (dose where 10% die)” value was 11.8 μmole/kg body weight.

Reference: patent publication US5695751A, “Enhancing delivery of large neutral amino acid drugs” (Cornell Research Foundation, Inc., priority 1995, dated 1997)
